Test results taken from PubChem BioAssay AID445 (National Center for Advancing Translational Sciences (NCATS), 2006).
In all, about 110,000 compounds went through this assay and about 40 (0.04%) were called active. The shares of active, inactive and inconclusive entries below differ from those in the screen. The call rests on the fitted dose curve; in most records, active means well fitted curve in the direction sought with a large enough effect in the signal ratio (not every such curve was filed as active); inconclusive means small, poorly fitted or top-dose-only effect, or a change in a side signal; inactive means flat fitted curve, though single readings scatter; the % refers to the signal ratio. Potencies beside an inconclusive call are fits to weak or partial responses and may not hold up.

Assay: IkB Signaling;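 on IkBa stabilization activation: 0% = basal untreated cells and 100% = reference inhibitor full response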
Conditions: ABC-DLBCL IkBa-CBG/CBR dual luciferase ratio (green luciferase fused to IkBa over red control in OCI-Ly3 lymphoma cells), 4 h; IkBa stabilization activation: at 57.1 µM (top of the series), scaled: untreated 0%, proteasome inhibitor 100% unless noted
In short: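 In this assay, an IκBα–CBG68 fusion accumulates when IKK-driven degradation is blocked; native CBR normalizes for cell number. OCI-Ly3 cells were treated 4 h with compound and doxycycline, then green and red light read after Chroma-Glo addition.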
Potency means the concentration at half of the fitted maximal effect.

Compound	IkBa stabilization activation	Potency
CC(C)(CC(=O)Nc1ccccc1)C(=O)O	inactive: 0.725% [at 11.4 µM, scaled: untreated 0%, proteasome inhibitor 100%]	
COc1cccc(NC(=O)CSc2c3c(nc4ccccc24)CCCC3)c1	inconclusive: 6.84% [signal inhibitor]	
Cc1c(Cl)ccc2sc(N3CCN(C(=O)C4CC4)CC3)nc12	inactive: -2.96%	
COc1ccc(-c2onc(C)c2C)cc1S(=O)(=O)N1CCN(c2cc(C)ccc2C)CC1	inactive: 0.224%	
COc1ccc(-c2cc3nc(C)c(CCC(=O)NC(C)c4ccccc4)c(C)n3n2)c(OC)c1 (stereo unspecified)		inconclusive: 1 µM [signal inhibitor]
COc1ccc(-c2noc(CN(C)S(=O)(=O)c3ccc(C)cc3)n2)cc1	inconclusive: 4.82% [signal inhibitor]	
Cc1nn(C(=O)c2cccc([N+](=O)[O-])c2C)c(C)c1S(=O)(=O)N1CCCCCC1	inconclusive: 3.56% [signal inhibitor]	
CCOC(=O)c1cccc(NC(=O)CN(c2ccc(C)cc2)S(=O)(=O)c2c(C)noc2C)c1	inconclusive: 3.82% [signal inhibitor]	
Nc1ncnc2c1ncn2[C@@H]1O[C@@H](CO)[C@H](O)[C@@H]1O	inactive: 1.73%	
COc1ccccc1-c1cc(C(=O)N2CCN(c3ccc(F)cc3)CC2)no1		inconclusive: 5.01 µM [signal inhibitor, partial curve]
Cc1c(C(=O)Nc2ccc(F)c(Cl)c2)sc2nc3n(c(=O)c12)CCC3	inconclusive: -1.25% [signal inhibitor]	
O=C(NCc1ccco1)Nc1cccs1		inconclusive: 31.6 µM [rising, single point]
COc1ccccc1N1CCN(c2ncnc3c2cnn3-c2ccc(C)cc2)CC1	inconclusive: 1.16% [signal inhibitor]	
FC(F)(F)c1cc(Nc2nc3ccccc3c3nncn23)ccc1Cl	inconclusive: -1.91% [signal inhibitor]	
CCCNC(=O)c1cnn(-c2ccc(C)c(C)c2)c1C1CCN(C(=O)OC(C)(C)C)CC1	inconclusive: 4.71% [signal inhibitor]	
Cc1cccc(CN2CCN(CC(=O)NCCc3ccc(Cl)cc3)C2=O)c1	inconclusive: -3.42% [signal inhibitor]	
Cn1nnnc1Sc1ncnc2scc(-c3ccccc3)c12		inconclusive: 15.8 µM [signal inhibitor, partial curve]
CCOC(=O)N1CCC2(CC1)C(C#N)=C(N)Oc1c2c(C)nn1-c1cccc(Cl)c1	inconclusive: 2.48% [signal inhibitor]	
COc1ccc(-c2nc3cnc(N4CCNCC4)nc3n(Cc3cccc(OC)c3)c2=O)cc1	inactive: -1.31% [at 11.4 µM, scaled: untreated 0%, proteasome inhibitor 100%]	
CCOC(=O)c1ccccc1NC(=O)CN1C(=O)CC(c2ccccc2)Sc2ccccc21 (stereo unspecified)	inconclusive: 5.68% [signal inhibitor]	
CCCCOc1ccc(C(=O)NCc2cn3cccc(C)c3n2)cc1	inactive: 1.54%	
CCOc1cc2c(cc1OCC)C(CC(=O)O)N(C(=O)Nc1ccc(Br)c(C)c1)CC2 (stereo unspecified)	inconclusive: 2.61% [signal inhibitor]	

Compound	IkBa stabilization activation	Potency
O=C(Nc1ccc(N2CCN(c3ccc(F)cc3)CC2)c(C(=O)O)c1)c1cccs1	inactive: 0.549%	
Cn1c(-c2ccc3ccccc3n2)nc2cnccc21	inactive: -0.425%	
O=C(NCc1ccc(Cl)cc1)C1CCC(CNS(=O)(=O)c2ccccc2)CC1 (stereo unspecified)	inactive: 1.11%	
CCN(CC)c1nn2c(=O)c(C(=O)NCCc3ccccc3C)cnc2s1	inactive: -2.23%	
C=CCSc1nnc(CSc2nc3sc4c(c3c(=O)[nH]2)CCCC4)n1-c1ccccc1	inconclusive: 4.38% [signal inhibitor]	
CCOc1ccc(N(Cc2ccccc2)C(=O)c2nc(SC)ncc2Cl)cc1	inconclusive: -0.648% [signal inhibitor]	
CCC1Oc2ccc(C)cc2N(CC(=O)NCc2cccc(OC)c2)C1=O (stereo unspecified)	inactive: -0.235%	
Cc1nn(C)c2c1c(C(F)(F)F)cc(=O)n2Cc1ccc(Br)cc1F	inconclusive: -0.89% [signal inhibitor]	
Cc1cccc(NC(=O)CSc2nc3n[nH]c(C)c3c(=N)n2-c2cccc(Cl)c2)c1	inconclusive: 2.22% [signal inhibitor]	
Cc1cc(C)cc(C(=O)NCCc2sc(-c3ccc(F)cc3)nc2C)c1	inconclusive: -0.285% [signal inhibitor]	
Cc1nc2cnc(N(C)C)nc2n(C)c1=O	inactive: 0.102% [at 11.4 µM, scaled: untreated 0%, proteasome inhibitor 100%]	
COc1ccc2cc(C(=O)CCC(=O)O)ccc2c1	inactive: -1.87% [at 11.4 µM, scaled: untreated 0%, proteasome inhibitor 100%]	
CCCOc1ccc(C(=O)N2CCC(c3nc4ccccc4s3)CC2)cc1	inconclusive: 0.759% [signal inhibitor]	
O=C(C1CC1)N1CCc2cc(Br)cc(S(=O)(=O)Nc3ccc(F)c(F)c3)c21	inconclusive: -2.31% [signal inhibitor]	
O=S(=O)(NCC(c1ccco1)N1CCN(c2ccccc2)CC1)c1cc(F)ccc1F (stereo unspecified)	inconclusive: -0.341% [signal inhibitor]	
Cn1c(=O)oc2ccc(C(=O)CSc3nnnn3-c3ccccc3)cc21		inconclusive: 31.6 µM [rising, partial curve]
Cc1cc(C)cc(N2CCn3c2nc2c3c(=O)n(Cc3c(F)cccc3Cl)c(=O)n2C)c1	inactive: 2.01%	
N#Cc1c(N2CCN(C(=O)c3ccco3)CC2)nc(-c2ccccc2)c2c1CCCC2	inconclusive: -2.82% [signal inhibitor]	
CNC(=O)c1ccccc1NC(=O)c1ccc(C)c(S(=O)(=O)N2CCCCC2)c1	inconclusive: 2.97% [signal inhibitor]	
COc1ccc(Oc2ncc3nc(C)c(=O)n(CCc4ccccc4)c3n2)cc1	inactive: -0.769% [at 11.4 µM, scaled: untreated 0%, proteasome inhibitor 100%]	
CCc1ccc2oc(-c3ccc(C)c(NC(=O)Cc4ccccc4)c3)nc2c1		inconclusive: 10 µM [signal inhibitor, partial curve]
COc1ccc2[nH]cc(CCNc3ncncc3-c3ccccc3C)c2c1	inactive: 12.1% [at 11.4 µM, scaled: untreated 0%, proteasome inhibitor 100%]	

Compound	IkBa stabilization activation	Potency
CC(C)(C)OC(=O)N1CCC(c2c(C(=O)NCCN3CCOCC3)cnn2-c2cccc(Cl)c2)CC1	inconclusive: 2.03% [signal inhibitor]	
CC(=O)Oc1ccccc1N1C(=O)c2ccc(C(=O)O)cc2C1=O	inconclusive: 18.6% [signal inhibitor]	
O=C(c1cc(-c2ccc(F)cc2)on1)N1CCN(c2ccc(F)cc2)CC1		inconclusive: 3.98 µM [signal inhibitor, full curve]
COc1ccc(C2=NCC(CSc3nccc(=O)[nH]3)S2)cc1 (stereo unspecified)	inconclusive: 2.31% [signal inhibitor]	
Cn1nc(C(=O)N2CCN(c3ccccc3F)CC2)c2c1-c1ccccc1S(=O)(=O)C2	inconclusive: 0.466% [signal inhibitor]	
Nc1cc(N)cc(-c2nc3ccccc3[nH]2)c1	inactive: 1.55%	
O=C(COc1ccccc1Cl)N1CCN(c2ncccn2)CC1	inactive: -1.78%	
CCOC(=O)c1ccccc1NC(=O)c1cc2ccc3cccnc3c2[nH]1	inconclusive: 16.1% [signal inhibitor]	
CC(C)NC(=O)c1ccc2c(c1)nc1n2CCCCC1	inactive: -0.255%	
CC(C)c1ccc(CNc2nc(-c3ccco3)nn2S(=O)(=O)c2ccc(F)cc2)cc1	inconclusive: 0.898% [signal inhibitor]	
CC(C)(C)C1CCc2onc(C(=O)Nc3sc4c(c3C#N)CCCC4)c2C1 (stereo unspecified)		inconclusive: 31.6 µM [signal inhibitor, partial curve]
CS(=O)(=O)Nc1ccc(Nc2c3ccccc3nc3ccccc23)cc1	inactive: 1.18% [at 11.4 µM, scaled: untreated 0%, proteasome inhibitor 100%]	
Cc1ccccc1CSc1nncn1N		inconclusive: 12.6 µM [signal inhibitor, partial curve]
CCOC(=O)c1c(C)[nH]c(C(=O)Cn2c(=O)c3c(ncn3CC)n(Cc3ccccc3)c2=O)c1C	inconclusive: 0.925% [signal inhibitor]	
Cc1ccc(C)c(-n2c(SCC(=O)Nc3nnc(C)s3)nnc2-c2ccoc2C)c1	inconclusive: 2.94% [signal inhibitor]	
O=C(Cn1cc(C(=O)c2ccccc2)c(=O)c2cc3c(cc21)OCCO3)Nc1ccc(F)c(F)c1	inconclusive: 9.79% [signal inhibitor]	
Cc1ccc(C)c(N2CCN(S(=O)(=O)c3ccc(C(=O)N(C)C)s3)CC2)c1	inconclusive: 1.66% [signal inhibitor]	
Cc1ccccc1CNC(=O)CCC(=O)N1CCSc2ccccc21	inactive: 4.82%	
O=C(NCc1ccc(F)cc1)C(=O)Nc1ccc2nc3n(c(=O)c2c1)CCCCC3	inactive: -0.577%	
CCn1nnc2cc(C(=O)Nc3cc(C)ccc3C)ccc21	inconclusive: -4.84% [signal inhibitor]	
COc1ccc(NC(=O)CCNS(=O)(=O)c2ccc3c(c2)CCCC(=O)N3)cc1	inactive: -0.414%	
CCOc1ccc(CC(=O)NCc2ccc3c(c2)CCN3C(=O)c2ccccc2)cc1OCC	inconclusive: -1.53% [signal inhibitor]	
